# From the supplement of paper PMC3334620
# Over roughly 33,000 sequences, “E-score (-0.5 to 0.5)” has its median near -0.04; the highest 2% begin near 0.36. The list shows a part of the results.
# Target: T1, Hmlalpha2 (UniProt P0CY09)
# T1 sequence: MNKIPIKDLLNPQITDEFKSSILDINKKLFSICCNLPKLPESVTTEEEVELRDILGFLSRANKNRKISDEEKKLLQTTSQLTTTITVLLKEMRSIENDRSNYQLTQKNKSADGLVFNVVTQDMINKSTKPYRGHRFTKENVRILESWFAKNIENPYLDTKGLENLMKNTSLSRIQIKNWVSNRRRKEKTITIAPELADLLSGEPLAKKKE
# Assay: PBM E-score (8-mer binding enrichment) (E-score (-0.5 to 0.5)); higher = stronger / more preferred TF binding; most listed sequences are background and not binding sites
# Settings: protein concentration: 200 nM; construct: GST-full length
# Method in brief: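 Bound GST-tagged yeast transcription factors, applied at about 100-200 nM to double-stranded universal all-10-mer Agilent arrays, were detected with fluorescent anti-GST. Scans were normalised with masliner. A modified Wilcoxon-Mann-Whitney statistic, the E-score, was assigned to each ungapped eight-base word pooled with its reverse complement by the Universal PBM Analysis Suite.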
row,Sequence,PBM E-score
1,AACCTCCA,-0.404
2,GACTGCGA,-0.14
3,GCGGGAAC,-0.264
4,AGGGTCGC,-0.121
5,GAACGAGC,0.162
6,AATAAGCA,0.114
7,ACGCCAAG,-0.105
8,CCGGGCTC,-0.203
9,AATTATCA,0.286
10,AGGACACG,-0.0228
11,ACTGGGGA,-0.197
12,ATACGCAA,0.347
13,AACTGGAC,-0.0972
14,AGTCTTGA,-0.0757
15,AAGAAGCG,-0.116
16,CGATTCAC,-0.0647
17,AACTTTCA,0.101
18,CTGACCGA,-0.32
19,GCTCTCCA,-0.226
20,AAAGAACC,-0.0552
21,GCAGCGTA,0.0131
22,AAAGGCCT,-0.0831
23,AGTCACAC,-0.0935
24,TACTGATA,0.148
25,AGATGTAG,0.094

row,Sequence,PBM E-score
1,CTTTTTGC,-0.112
2,ATTTAGAC,0.128
3,GCGCGTAA,0.416
4,CTAGTTCA,0.0551
5,AGATCGGC,-0.0697
6,AGGGATAG,-0.265
7,CAAGCTGG,-0.141
8,TAGATAGA,-0.131
9,TCATTCGA,0.0932
10,ATTGCAAC,-0.0311
11,CCAACGCC,-0.0515
12,AAACCGGG,-0.229
13,AACTGCGA,-0.253
14,AACCCCAG,-0.199
15,CTGGAAGA,-0.183
16,ATTTTTCC,-0.0437
17,AACCCCCG,-0.397
18,AGGTGCGA,-0.219
19,GCTGCTGA,0.0218
20,AGAAAGAA,-0.133
21,ATTACCGG,-0.139
22,TCTAGTAA,0.222
23,CATCCTGG,-0.13
24,CGGCTCGA,-0.0892
25,ATGGATGG,-0.107

row,Sequence,PBM E-score
1,ATTAGCAG,-0.147
2,CCATTGGC,-0.198
3,AGTTTCGA,-0.184
4,AGACCTGG,-0.34
5,TCATTAGA,0.0985
6,TCGCGCCA,-0.116
7,ATTACTAC,0.274
8,ACAGCCGT,0.0172
9,CGTAGGAA,-0.00683
10,AAGTTATA,0.238
11,ATGCTAGA,0.123
12,ACCGAACC,-0.277
13,GGCGTATA,0.106
14,ACAAAGCG,0.159
15,GATTAACA,0.413
16,ACGGAGAC,0.02
17,GCTAGCGA,-0.117
18,AACTTTCC,-0.311
19,TACCTACA,0.301
20,ACTAACCG,0.129
21,ATAAGAAA,0.0546
22,ACCCGAGT,-0.0613
23,TAGTCGGA,-0.163
24,TTATCGAA,0.0652
25,CTAACTCC,-0.153

row,Sequence,PBM E-score
1,ATCGTAGA,0.063
2,AACGAGAA,0.0892
3,AACGAAAA,-0.0514
4,CTTACGTA,0.307
5,AGGTGGTG,-0.163
6,GATGATCC,-0.233
7,CTATAGAA,-0.0476
8,CCGGAGAG,-0.27
9,CTAACCGC,-0.0677
10,ATGCTTTC,0.138
11,AAAAGAAG,0.0386
12,GGTATTTA,0.0776
13,GAACTTGA,0.133
14,ACGGACCG,-0.219
15,ATTTCCCC,-0.153
16,GTTGTCGA,0.115
17,GATGCACA,-0.0755
18,ATGATGTA,0.358
19,AGCACATA,0.134
20,ACTCGGGC,-0.105
21,AATCCATC,-0.146
22,CTGTAGCA,0.00904
23,GCTTAGAA,-0.00669
24,TCGTTACA,0.224
25,AAGGCCGG,-0.305

row,Sequence,PBM E-score
1,GGTAGGGA,-0.101
2,CAAAGTTA,0.156
3,GGCTCGGA,-0.335
4,TCGGCCCA,-0.168
5,ATTTGGGG,-0.0967
6,CAAGCGAA,-0.00904
7,ATCTTAAT,0.0212
8,CTGGTTAC,0.092
9,AGCAACTA,0.198
10,GAGGCGAC,-0.229
11,CCTTAGTC,-0.149
12,GCTTCTAA,-0.155
13,CGCAACAA,0.283
14,CCCTTAAA,-0.0696
15,ATTTCCAG,0.0617
16,CCCATATC,-0.145
17,CGAACGCA,0.258
18,GCGCCTCA,-0.341
19,CACTCAAG,-0.0751
20,AGGGCAAC,-0.206
21,ACATTTCT,0.0405
22,CCATGCAG,-0.0719
23,ATCGCGGC,-0.163
24,AACCGGCA,-0.229
25,AAAACAAC,0.16

row,Sequence,PBM E-score
1,CACATAGG,0.0614
2,CCTCCATC,-0.223
3,CAGGTTGA,-0.0957
4,ATTGCTTC,-0.0298
5,AAAATAAG,0.0122
6,ACGACCGT,-0.16
7,GCAGGCAC,-0.186
8,CGAGTACA,0.218
9,AGGATCGC,-0.0343
10,CCGTCCAA,-0.294
11,ACCAACAC,0.32
12,CGGAGTGC,-0.23
13,GGGCGGGA,-0.166
14,AGCGTTTG,-0.188
15,AGCAGCAA,-0.084
16,ACAGGGGT,-0.035
17,AACTCACA,0.0163
18,CCAACCAC,0.086
19,TCGGGCCA,-0.353
20,ACTCTTTG,-0.0523
21,ACCCTTAA,-0.0263
22,ACTACCCT,-0.213
23,GACTCCAC,-0.373
24,AGCTGCAC,-0.0262
25,CTAAGAAA,0.181

row,Sequence,PBM E-score
1,ACCATAAC,0.152
2,GACGTCAC,-0.067
3,AAAAGGAT,0.0597
4,CACGTAAA,0.405
5,CCTCTGTC,-0.138
6,ACTTACAT,0.43
7,CCCGCTAC,0.0803
8,AGAAACAC,0.27
9,AGGAGTAG,-0.0824
10,ACATCGAA,0.146
11,AGATAGGA,-0.268
12,CAACAAGA,0.225
13,CATAAAAG,-0.0298
14,CCACCTAC,-0.175
15,AACTCCAA,0.0679
16,AGGACCAA,0.0164
17,CTCAGTAC,0.0181
18,ACTGGCTA,-0.179
19,AGCGTGCC,-0.142
20,GAGTTCCA,-0.0668
21,GCTGTCCC,-0.228
22,CGCCCCAA,0.0342
23,CGTTTCTC,-0.166
24,ACCACTTC,-0.229
25,AAGCATCA,-0.103

row,Sequence,PBM E-score
1,AACGCAAT,0.326
2,CGGTGTAG,0.103
3,ATAGTACA,0.273
4,CCATTCTC,-0.247
5,TAAATCTA,0.236
6,AGGGAAGG,-0.222
7,AGCTGCGC,-0.0832
8,ACTTGCGC,-0.0151
9,GCTCCCGA,-0.314
10,CGAGGTCA,-0.138
11,CAAAATCA,0.082
12,TCTCAAGA,-0.189
13,GTCTTGGA,-0.0752
14,CGTATGGC,0.0244
15,GGCCCGGA,-0.324
16,AATAGAGC,-0.00245
17,AAGAGTAC,0.0432
18,CCGCGCCC,-0.312
19,AGGCCGGC,-0.0897
20,CCCGTTAG,-0.328
21,ATATGAAT,-0.0472
22,ACGCAAAC,0.125
23,CCCGACAG,-0.191
24,ATTACGAA,0.289
25,ACCCCAGC,-0.0667

row,Sequence,PBM E-score
1,CGGCATAG,-0.0139
2,CCCATCAG,-0.268
3,TATTTTAA,0.198
4,ATACGTGA,0.208
5,CCTCGGTA,-0.353
6,ATGTCTAG,0.215
7,CCCAGCCA,-0.222
8,ACGTCTTC,0.00621
9,CGCGTTAG,0.3
10,ACCTATGC,-0.0222
11,ATGAACTA,0.147
12,AGGTGCTA,0.04
13,GATGGTGC,-0.269
14,TCCGGAGA,-0.243
15,ACCAACTA,0.151
16,CCACCTAG,-0.146
17,CATCATCG,-0.156
18,AAGACCGC,-0.103
19,ATCTGACC,0.00247
